Measurements from article PMC11995724, “Antibiotic target discovery by integrated phenotypic and activity-based profiling of electrophilic fragments” (Cell chemical biology, 2025).
Out of some 3,200 compounds screened, about 110 (3.4%) showed an effect of 50% or more. The list shows a part of the results.

tested on: T1, V. cholerae SAD30; set-up: species or system S. aureus MSSA476 (TSB) or V. cholerae SAD30 (LB); 384-well bacterial growth screen at 25 uM, OD600 relative to DMSO control; settings: relative growth, OD600, LB; 25 µM; inhibitor
T1 construct: SAD30

Row | Compound | % of control remaining [%]
1 | CC1CCCN(C(=O)C(NC(=O)C(C)Cl)c2cnn(C)c2)C1 (stereo not drawn) [7-G12, 2-chloro-N-[1-(1-methyl-1H-pyrazol-4-yl)-2-(3-methylpiperidin-1-yl)-2-oxoethyl]propanamide] | 74.5415
2 | C=CC(=O)NCc1cccc(CNS(C)(=O)=O)c1 [3-F11, N-{[3-(methanesulfonamidomethyl)phenyl]methyl}prop-2-enamide] | 90.8546
3 | CC(Cl)C(=O)NCC1c2ccccc2C(=O)N1Cc1ccccc1 (stereo not drawn) [6-H20, N-[(2-benzyl-3-oxo-2,3-dihydro-1H-isoindol-1-yl)methyl]-2-chloropropanamide] | 88.5771
4 | C=CC(=O)NCC1(c2ccccc2)CC1(F)F (stereo not drawn) [2-O20, N-[(2,2-difluoro-1-phenylcyclopropyl)methyl]prop-2-enamide] | 90.3503
5 | N#CC(=Cc1cnc2ccc(C#N)cn12)C(=O)Nc1ccc(F)cc1 [9-E20, 2-cyano-3-{6-cyanoimidazo[1,2-a]pyridin-3-yl}-N-(4-fluorophenyl)prop-2-enamide] | 86.6757
6 | CC(Cl)C(=O)NC(c1ccc(F)cc1)c1cnn(C)c1 (stereo not drawn) [7-C19, 2-chloro-N-[(4-fluorophenyl)(1-methyl-1H-pyrazol-4-yl)methyl]propanamide] | 79.2995
7 | Cc1cc(C(=O)CCl)c(C)n1Cc1ccc(F)cc1 [10-N17, 2-chloro-1-{1-[(4-fluorophenyl)methyl]-2,5-dimethyl-1H-pyrrol-3-yl}ethan-1-one] | 95.5387
8 | O=C(CCl)Nc1nc2c(s1)CCc1ccccc1-2 [6-D03, 2-chloro-N-{4H,5H-naphtho[1,2-d][1,3]thiazol-2-yl}acetamide] | 105.868
9 | CC(Cl)C(=O)N1Cc2ccccc2OCC1C (stereo not drawn) [7-F11, 2-chloro-1-(3-methyl-2,3,4,5-tetrahydro-1,4-benzoxazepin-4-yl)propan-1-one] | 75.731
10 | Cc1cc(C(=O)CCl)c(C)n1-c1ccc(Cl)c(Cl)c1 [10-D18, 2-chloro-1-[1-(3,4-dichlorophenyl)-2,5-dimethyl-1H-pyrrol-3-yl]ethan-1-one] | 108.475
11 | C=CC(=O)Nc1ccc2c(c1)N(CC#N)CC2 [1-C19, N-[1-(cyanomethyl)-2,3-dihydro-1H-indol-6-yl]prop-2-enamide] | 88.4903
12 | O=C1C=CC(=O)N1c1ccc(OC(F)F)cc1 [10-P11, 1-[4-(difluoromethoxy)phenyl]-2,5-dihydro-1H-pyrrole-2,5-dione] | 36.7816
13 | CCCCNC(=O)C(C#N)=Cc1cc(F)ccc1F [8-K08, N-butyl-2-cyano-3-(2,5-difluorophenyl)prop-2-enamide] | 68.0489
14 | C=CC(=O)Nc1ccccc1C(=O)N(C)C(C)C [3-H17, N-methyl-2-(prop-2-enamido)-N-(propan-2-yl)benzamide] | 87.8552
15 | COc1cccc(NC(=O)CN(C)C(=O)CCl)c1 [5-A03, 2-chloro-N-{[(3-methoxyphenyl)carbamoyl]methyl}-N-methylacetamide] | 110.119
16 | C=CC(=O)N1CCC(C(=O)NCc2ccc(-c3n[nH]c(C)n3)cc2)CC1 [3-M21, N-{[4-(5-methyl-1H-1,2,4-triazol-3-yl)phenyl]methyl}-1-(prop-2-enoyl)piperidine-4-carboxamide] | 100.382
17 | C=CC(=O)Nc1cccc(C(O)C(F)(F)F)c1 (stereo not drawn) [1-M16, N-[3-(2,2,2-trifluoro-1-hydroxyethyl)phenyl]prop-2-enamide] | 87.4439
18 | O=C1C=CC(=O)N1c1ccc(F)cc1F [10-F15, 1-(2,4-difluorophenyl)-2,5-dihydro-1H-pyrrole-2,5-dione] | 26.4952
19 | N#CC1=C(N2CCOCC2)SC(c2ccc([N+](=O)[O-])cc2)NC1=O (stereo not drawn) [9-D08, 6-(morpholin-4-yl)-2-(4-nitrophenyl)-4-oxo-3,4-dihydro-2H-1,3-thiazine-5-carbonitrile] | 84.3644
20 | C=CC(=O)NC[C@@H]1C[C@H](F)CN1Cc1ccnn1C [2-E05, N-{[(2S,4S)-4-fluoro-1-[(1-methyl-1H-pyrazol-5-yl)methyl]pyrrolidin-2-yl]methyl}prop-2-enamide] | 94.2102
21 | C=CC(=O)N1CCC(O)(c2ccccc2)CC1 [1-E15, 1-(4-hydroxy-4-phenylpiperidin-1-yl)prop-2-en-1-one] | 85.5007
22 | CC(Cl)C(=O)N1CCCC(CNC(=O)Nc2ccc(F)cc2)C1 (stereo not drawn) [6-J22, 3-{[1-(2-chloropropanoyl)piperidin-3-yl]methyl}-1-(4-fluorophenyl)urea] | 101.469
23 | Cn1cc(C(=O)CCl)nn1 [10-M19, 2-chloro-1-(1-methyl-1H-1,2,3-triazol-4-yl)ethan-1-one] | 0

Row | Compound | % of control remaining [%]
24 | Cc1nc2n(n1)CCN(C(=O)C(C)Cl)C2 (stereo not drawn) [5-A04, 2-chloro-1-{2-methyl-5H,6H,7H,8H-[1,2,4]triazolo[1,5-a]pyrazin-7-yl}propan-1-one] | 108.438
25 | O=C(CCl)c1c[nH]c2ccncc12 [10-K05, 2-chloro-1-{1H-pyrrolo[3,2-c]pyridin-3-yl}ethan-1-one] | 101.305
26 | COc1ccc([N+](=O)[O-])cc1NC(=O)CCl [4-P17, 2-chloro-N-(2-methoxy-5-nitrophenyl)acetamide] | 111.969
27 | O=C1C=CC(=O)N1c1cc([N+](=O)[O-])ccc1Cl [10-H15, 1-(2-chloro-5-nitrophenyl)-2,5-dihydro-1H-pyrrole-2,5-dione] | 28.2096
28 | C=CC(=O)NC[C@@H]1C[C@H]1C1CCCCC1 [1-O19, N-{[(1R,2S)-2-cyclohexylcyclopropyl]methyl}prop-2-enamide] | 71.5994
29 | Cc1cccc(NC(=O)C(C#N)=Cc2ccc(F)c(F)c2)c1 [8-I16, 2-cyano-3-(3,4-difluorophenyl)-N-(3-methylphenyl)prop-2-enamide] | 63.4262
30 | C=CC(=O)Nc1ccc(C(F)C(F)(F)F)cc1 (stereo not drawn) [1-O20, N-[4-(1,2,2,2-tetrafluoroethyl)phenyl]prop-2-enamide] | 84.9028
31 | COc1ccc(NC(=O)C(C)Cl)c([N+](=O)[O-])c1 (stereo not drawn) [6-B08, 2-chloro-N-(4-methoxy-2-nitrophenyl)propanamide] | 90.3972
32 | Cc1ccc(C)c(C=C(C#N)C(=O)NC(C)C)c1 [9-O22, 2-cyano-3-(2,5-dimethylphenyl)-N-(propan-2-yl)prop-2-enamide] | 95.9211
33 | C=CC(=O)NCCN1CCOCC1C (stereo not drawn) [2-I05, N-[2-(3-methylmorpholin-4-yl)ethyl]prop-2-enamide] | 90.3503
34 | C=CC(=O)NCC(C)Cn1nccc1C (stereo not drawn) [1-H14, N-[2-methyl-3-(5-methyl-1H-pyrazol-1-yl)propyl]prop-2-enamide] | 80.2257
35 | CC(Cl)C(=O)N1CCn2c(nn(CC(=O)N(C)C)c2=O)C1 (stereo not drawn) [7-K17, 2-[7-(2-chloropropanoyl)-3-oxo-2H,3H,5H,6H,7H,8H-[1,2,4]triazolo[4,3-a]pyrazin-2-yl]-N,N-dimethylacetamide] | 78.2422
36 | Cc1c(Cl)cccc1N1C(=O)C=CC1=O [10-B17, 1-(3-chloro-2-methylphenyl)-2,5-dihydro-1H-pyrrole-2,5-dione] | 23.3781
37 | C=CC(=O)N1CCN(Cc2cc(C)no2)CC1 [1-B18, 1-{4-[(3-methyl-1,2-oxazol-5-yl)methyl]piperazin-1-yl}prop-2-en-1-one] | 110.402
38 | CC(Cl)C(=O)NC(C)c1ccc(C(F)(F)F)nc1Cl (stereo not drawn) [7-G09, 2-chloro-N-{1-[2-chloro-6-(trifluoromethyl)pyridin-3-yl]ethyl}propanamide] | 79.0352
39 | COc1ccc(C=C(C#N)C(=O)Nc2ccc(C)cc2)cc1 [9-A19, 2-cyano-3-(4-methoxyphenyl)-N-(4-methylphenyl)prop-2-enamide] | 88.3073
40 | COc1ccccc1NC(=O)c1ccc(NC(=O)CCl)cc1 [4-O17, 4-(2-chloroacetamido)-N-(2-methoxyphenyl)benzamide] | 104.205
41 | CC(NC(=O)c1ccccc1NC(=O)CCl)c1ccccc1 (stereo not drawn) [4-B07, 2-(2-chloroacetamido)-N-(1-phenylethyl)benzamide] | 105.758
42 | C=CC(=O)N(Cc1cnn(C(C)C)c1)c1ccc2nc(C)oc2c1 [2-C13, N-(2-methyl-1,3-benzoxazol-6-yl)-N-{[1-(propan-2-yl)-1H-pyrazol-4-yl]methyl}prop-2-enamide] | 92.8206
43 | CCn1cc(S(=O)(=O)N2CCSSCC2)cn1 [10-N19, 5-[(1-ethyl-1H-pyrazol-4-yl)sulfonyl]-1,2,5-dithiazepane] | 96.7855
44 | CC1=C(c2ccco2)CN(C(=O)CCl)CC1 [5-H05, 2-chloro-1-[5-(furan-2-yl)-4-methyl-1,2,3,6-tetrahydropyridin-1-yl]ethan-1-one] | 103.898
45 | CC(NC(=O)CCl)c1ccc2c(c1)CCCC2 (stereo not drawn) [4-B03, 2-chloro-N-[1-(5,6,7,8-tetrahydronaphthalen-2-yl)ethyl]acetamide] | 113.867
